About 540 (0.36%) of roughly 150,000 compounds showed an effect of 50% or more. Some of the results follow.
Test system: Plasmodium falciparum
Experiment: Primary screen in NF54 nanoGlo assay, in single point, at 2uM, 72h; a lower Z score goes with more inhibition
Format: functional, Erythrocyte
Details: timepoint 72 hour

SMILES | % Inhibition [%] | Z score
CCOc1cccc(CNC(=O)C(C)(C)C)c1 | -11 | 0.98
Cc1ccc(OCc2nc(C)c(C(=O)Nc3nccs3)s2)cc1C | 0 | -0.06
Cc1nn(-c2ccccc2)c2c1C(=O)NC(=O)C(C)(C)C2 | -4 | 0.54
CCN(CC(C)(C)C)C(=O)c1c(C)cccc1OC | 4 | -0.61
COC[C@@H]1[C@H](NC(=O)c2cc3ccccc3[nH]2)[C@H]2CCO[C@H]21 | -13 | 2.29
Cc1ncccc1CN[C@@H](CN1CCCC1=O)c1cccc(C(F)(F)F)c1 | -14 | 1.77
CC1CC(c2cccnc2)N(C(=O)NCc2ccccc2)C1 (stereo not drawn) | -4 | 0.64
Cc1nc([C@H](C)NC(=O)c2cnc(COc3ccccc3)nc2O)cs1 | 1 | -0.11
O=C(NCc1cnc(C(F)(F)F)nc1)N[C@@H]1CCc2cc(Cl)ccc21 | -8 | 1.2
OCCn1cc(Nc2ncnc3sccc23)cn1 | 5 | -0.96
CN1C(=O)CC[C@H]1C(=O)Nc1ccc(-c2cn3c(n2)CCCC3)cc1 | -18 | 2.62
CCn1nc(C)c(-c2cc(C(=O)N3C[C@H]4CN(C(=O)C(C)C)C[C@@]4(CO)C3)no2)c1C | -11 | 1.53
Cc1nc(CN[C@H]2CCCN(C(=O)C(C)C)C2)n(C)c1C | -22 | 1.93
Cn1nc(C2CC2)nc1CN1CCO[C@H](c2cccs2)C1 | -9 | 1.4
O=C(NCc1cccs1)C1CCN(Cc2ccncc2)CC1 | 10 | -0.85
Cc1n[nH]c(C)c1CNC(=O)[C@H]1CC(=O)N(c2ccccc2Br)C1 | -3 | 0.7
COCCCn1c(C)cc(C(=O)N2CC[C@H]3C(=O)NCCN3CC2)c1C | 0 | 0.04
Cc1cc(C)n(CCN(C)c2nnc(C)s2)n1 | -5 | 0.8
c1ccc(-c2nnc(NCCN3CCOCC3)o2)cc1 | -5 | 0.66
Cc1ccc(C(=O)N2C[C@@H]3C[C@H](NS(=O)(=O)c4cccnc4)[C@H]2C3)cc1F | 34 | -3.8
CCOc1ccc(CCNC(=O)c2nc(-c3ccc4c(c3)OCC(=O)N4C)no2)cc1OCC | 11 | -1.31
CCC(C)S(=O)(=O)NC(=O)C1CC1(Cl)Cl (stereo not drawn) | -15 | 1.97
C[C@H](O)Cc1cn(C2CCN(C(=O)NCc3ccco3)CC2)nn1 | 6 | -0.8
CC(C)N1CCC(CN2CCO[C@H](c3ccc(Cl)cc3)C2)CC1 | -10 | 1.35
Cc1noc(C)c1CN1CC[C@H](NC(=O)Cc2cccnc2)[C@@H](O)C1 | 2 | -0.26
CCc1nsc(NCc2nc(C(F)(F)F)no2)n1 | -4 | 0.41
COCC1(C(=O)NS(=O)(=O)c2c(F)cc(OC)cc2F)CCC1 | -11 | 1.96

SMILES | % Inhibition [%] | Z score
O=S(=O)(c1ccc(F)cc1F)N1CCN(c2nccc(-c3ccc(Oc4ccccc4)cc3)n2)CC1 | 0 | -0.04
Cc1cccc(N2CCN(C(=O)C3CCN(S(=O)(=O)Cc4ccc(Cl)cc4)CC3)CC2)c1C | 1 | -0.12
C[C@@H](Cn1nnnc1N1CCCC1)Oc1ccccc1F | -2 | 0.2
CC(C)c1ncc(CN(C)C(=O)[C@@H]2C[C@H]3CC[C@@H]2O3)cn1 | 16 | -1.84
CC(=O)N[C@H]1CCN(c2cc(C)ncn2)C1 | 6 | -0.74
FC(F)(F)c1nnc2ccc(NC3CCN(c4ncnc5c4CCCC5)CC3)nn12 | -8 | 1.7
CO[C@@H](CNC(=O)N1CCNC1=O)c1ccc(Cl)s1 | -19 | 2.37
Cc1nc(C)c(C(=O)N2CCCCCCNC(=O)CC2)s1 | -12 | 1.52
CCOc1ccccc1CN1CCN(C(=O)c2ccnc3c2ncn3C)[C@@H](C)C1 | -1 | 0.18
CO[C@H]1CN(c2nc(-c3cc4ccccc4s3)ccc2C(=O)O)CC[C@H]1N | -14 | 1.83
CC(C)c1nc(CC(=O)N[C@@H](C)CN2CCOCC2)cs1 | 3 | -0.52
CCN(CC)c1ccccc1COC(=O)[C@H]1CCc2cn[nH]c2C1 | -9 | 1.49
FC1(F)CC(Cn2cc(Cl)cn2)C1 | -7 | 1.36
O=C(NCCc1cn[nH]c1)N1CCOCC1C1CCCO1 (stereo not drawn) | -1 | 0.15
CCCN1CCN(C(=O)c2cccc(N(C)C)c2)CC1 | -1 | 0.14
Cc1cnc(C(=O)OCc2coc(-c3ccc(F)cc3)n2)cn1 | -4 | 0.53
CCOC(=O)NC(=O)C(=CNc1cccc(Cl)c1)C(=O)NC(=O)OCC | -35 | 4.1
CC(=O)c1ccc(CNC(=O)c2cc(C(C)C)on2)nc1C | 3 | -0.29
O=S(=O)(N[C@@]12C[C@@H]1COC21CCC1)c1ccccc1 | -10 | 1.93
Cc1[nH]c2ccccc2c1C1=CC(c2ccccc2)=NN=C(c2ccccc2)C1 | -11 | 1.74
O=C(CC1CC1)NCC[C@H](O)c1cccc(Cl)c1 | -17 | 2.15
O=S(=O)(N[C@H]1CCc2ncnn2C1)c1ccoc1 | -2 | 0.41
Cc1c(C)[n+](O)c([C@@H](CC(=O)O)c2ccc(-c3nc4ccccc4s3)o2)n1C | -8 | 1
CC(C)N1CCN(C[C@]2(O)CCCN(CC(C)(C)C)C2=O)CC1 | -10 | 1.29
Cc1nc(-c2ccc(N3CCC(NCCCn4ccnc4)CC3)cc2)cs1 | 40 | -6.92
CC[C@@H](CNC(=O)CCc1cnn(C)n1)Oc1cccc(Cl)c1 | -2 | 0.25
Cc1cc(C)cc(C(O)CNC(=O)NCC(C)Cn2ccnc2C)c1 (stereo not drawn) | -6 | 0.86

From ChEMBL document CHEMBL4888484, “Replenishing the malaria drug discovery pipeline: Screening and hit evaluation of the MMV Hit Generation Library 1 (HGL1) against asexual blood stage Plasmodium falciparum ,using a nano luciferase reporter read-out” (2022)
